{
  "source": "PubChem BioAssay AID504332",
  "about": "(National Center for Advancing Translational Sciences (NCATS), 2011)",
  "note": "The campaign covered roughly 350,000 compounds. About 31,000 (8.9%) were called active. The shares of active, inactive and inconclusive entries below differ from those in the screen. Calls come from the whole dose curve; as a rule, active = well fitted inhibition curve with a large enough effect; inconclusive = small, poorly fitted or top-dose-only effect; inactive = no such curve, though single readings can be large or run the other way. A potency beside an inconclusive call is a rough fit, not a confirmed value. % is set by controls: 0 for no effect and ±100 for the full control effect; potency is the fitted concentration of half-maximal effect; tags give direction and shape of the fitted curve.",
  "data": [
    {"biological_target": "Histone-lysine N-methyltransferase EHMT2 (Homo sapiens) (UniProt Q96KQ7)", "sequence (Q96KQ7 whole entry, looked up)": "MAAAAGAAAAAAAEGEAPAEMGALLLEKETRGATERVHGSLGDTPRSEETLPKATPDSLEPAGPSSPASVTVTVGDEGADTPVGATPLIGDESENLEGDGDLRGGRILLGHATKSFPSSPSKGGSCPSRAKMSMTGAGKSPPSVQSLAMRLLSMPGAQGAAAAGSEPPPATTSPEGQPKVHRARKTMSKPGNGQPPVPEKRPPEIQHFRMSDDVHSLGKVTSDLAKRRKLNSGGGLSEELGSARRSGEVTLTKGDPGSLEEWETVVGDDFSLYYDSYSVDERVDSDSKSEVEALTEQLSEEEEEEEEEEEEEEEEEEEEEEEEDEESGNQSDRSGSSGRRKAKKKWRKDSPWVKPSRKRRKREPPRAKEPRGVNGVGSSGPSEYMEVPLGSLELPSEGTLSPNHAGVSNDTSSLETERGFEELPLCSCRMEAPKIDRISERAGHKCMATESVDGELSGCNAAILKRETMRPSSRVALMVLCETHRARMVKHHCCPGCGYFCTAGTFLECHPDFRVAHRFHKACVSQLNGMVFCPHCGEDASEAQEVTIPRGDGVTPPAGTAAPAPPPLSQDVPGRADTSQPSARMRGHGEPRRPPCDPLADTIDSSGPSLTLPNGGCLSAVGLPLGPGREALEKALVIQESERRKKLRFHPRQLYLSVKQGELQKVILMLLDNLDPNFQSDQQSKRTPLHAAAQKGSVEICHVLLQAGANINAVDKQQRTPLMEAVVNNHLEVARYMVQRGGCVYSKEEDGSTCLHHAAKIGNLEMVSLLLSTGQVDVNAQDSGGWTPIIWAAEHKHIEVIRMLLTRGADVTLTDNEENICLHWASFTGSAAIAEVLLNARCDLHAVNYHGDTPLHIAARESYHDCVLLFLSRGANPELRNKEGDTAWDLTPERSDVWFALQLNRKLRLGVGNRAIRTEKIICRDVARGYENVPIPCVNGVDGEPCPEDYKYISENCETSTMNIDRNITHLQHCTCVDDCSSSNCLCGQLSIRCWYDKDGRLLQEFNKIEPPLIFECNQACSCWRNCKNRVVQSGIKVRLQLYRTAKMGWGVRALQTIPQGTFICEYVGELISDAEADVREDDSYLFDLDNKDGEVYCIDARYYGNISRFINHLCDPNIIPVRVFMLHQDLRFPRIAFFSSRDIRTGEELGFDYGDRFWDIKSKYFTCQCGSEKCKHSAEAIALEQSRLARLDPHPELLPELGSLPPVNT", "experiment": "qHTS Assay for Inhibitors of Histone Lysine Methyltransferase G9a; note: nearly all actives have a fitted effect of over 75% in size", "settings": "G9a H3K9 monomethylation, AlphaScreen, 2 h; activity, negative = inhibition: at 59 µM (top of the series) unless noted", "procedure,_shortened": "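Compounds were preincubated with 20 nM G9a for 15 min, after which biotinylated H3K9 peptide (500 nM) and SAM (20 uM) started a 2 h room-temperature reaction. Monomethylated product was quantified by antibody-based AlphaScreen chemiluminescence.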", "values": [
      {"molecule": "COc1ccc(CCNC2=C(Cl)C(=O)N(CCc3ccc(OC)c(OC)c3)C2=O)cc1OC", "activity, negative = inhibition": "inactive: -1.89%"},
      {"molecule": "CCc1ccc(-n2cccc2/C=C2/C(=N)N3C(=NC2=O)SN=C3S(C)(=O)=O)cc1", "Potency": "active: 44.7 µM"},
      {"molecule": "O=C(N/N=C/c1sc(N2CCCCC2)nc1-c1cccs1)c1cccnc1", "Potency": "inconclusive: 50.1 µM [inhibitor, partial curve, poor fit]"},
      {"molecule": "Cc1ccccc1N1CC(C(=O)Nc2nnc(SCc3ccccn3)s2)CC1=O", "note": "(stereo not given)", "Potency": "inconclusive: 89.1 µM [inhibitor, single point]"},
      {"molecule": "C/C(=N\\Nc1cccc([N+](=O)[O-])c1)c1cc2ccccc2o1", "activity, negative = inhibition": "inactive: -30.3% [at 102 µM]"},
      {"molecule": "CC1CCC2(CC1)NC(=O)N(CC(=O)Nc1nc(-c3ccc(F)cc3)cs1)C2=O", "note": "(stereo not given)", "Potency": "active: 50.1 µM"},
      {"molecule": "C=CCNCCCOc1ccc(Cl)cc1Br", "Potency": "inconclusive: 25.1 µM [inhibitor, single point]"},
      {"molecule": "CCN(CC)CCSc1nnc2c3cc(F)ccc3n(C)c2n1", "Potency": "inconclusive: 7.08 µM [inhibitor, partial curve, poor fit]"},
      {"molecule": "COc1ccc(N2CCN(C(=O)CN3C(=O)NC4(CCCCCC4)C3=O)CC2)cc1", "Potency": "inconclusive: 3.16 µM [inhibitor, partial curve, poor fit]"},
      {"molecule": "CCN(CC)CCNC(=O)c1ccc(Cl)c(S(=O)(=O)N2CCCCCC2)c1", "Potency": "inconclusive: 89.1 µM [inhibitor, single point]"},
      {"molecule": "Cc1ccc(/C=C/C(=O)N2CCc3ccccc3C2)cc1", "Potency": "inconclusive: 89.1 µM [inhibitor, single point]"},
      {"molecule": "CCOC(=O)C1=C(N)OC2=C(C(=O)CCC2)C1c1cccnc1", "note": "(stereo not given)", "Potency": "inconclusive: 89.1 µM [inhibitor, single point]"},
      {"molecule": "CCCCn1c(N)c(C(=S)NC(=O)CC(C)(C)C)c(=O)n(C)c1=O", "activity, negative = inhibition": "inactive: -6.88% [at 102 µM]"},
      {"molecule": "O=C(O)CN1CCc2ccccc2C1", "Potency": "inconclusive: 89.1 µM [inhibitor, partial curve, poor fit]"},
      {"molecule": "O=C(O)CCn1c(SCc2cccc3ccccc23)nc2ccccc21", "Potency": "active: 14.1 µM"},
      {"molecule": "CN(C)c1ncnc2c1NC1=C(S2)C(=NCCCC(=O)O)CC(C)(C)C1", "Potency": "inconclusive: 20 µM [inhibitor, partial curve, poor fit]"},
      {"molecule": "Cc1cc(C)cc(NC(=O)CSc2nnc(-c3cc4occc4n3C)n2-c2ccccc2C)c1", "Potency": "inconclusive: 20 µM [inhibitor, partial curve, poor fit]"},
      {"molecule": "CCCCC(NC(=O)Cc1c(C)c2cc3c4c(oc3c(C)c2oc1=O)CCCC4)C(=O)O", "note": "(stereo not given)", "Potency": "inconclusive: 89.1 µM [inhibitor, single point]"},
      {"molecule": "CC(=O)Nc1ccc(SCC(=O)c2ccc(Br)s2)cc1", "Potency": "active: 22.4 µM"},
      {"molecule": "COc1ccccc1C(c1nnnn1Cc1ccco1)N1CCN(c2cccc(C)c2C)CC1", "note": "(stereo not given)", "activity, negative = inhibition": "inactive: -15.7%"},
      {"molecule": "Cc1cc(C)n(C(=O)Cn2nc([N+](=O)[O-])c(Br)c2C)n1", "Potency": "inconclusive: 89.1 µM [inhibitor, partial curve, poor fit]"},
      {"molecule": "Cn1cc(SCC(=O)Nc2ccc3c(c2)OCCO3)c2ccccc21", "Potency": "inconclusive: 31.6 µM [inhibitor, single point]"},
      {"molecule": "CC1CCCCN1S(=O)(=O)c1coc(C(N)=O)c1", "note": "(stereo not given)", "Potency": "inconclusive: 5.01 µM [inhibitor, full curve, poor fit]"},
      {"molecule": "O=C(Nc1nnc(-c2ccc3c(c2)CCCC3)o1)c1c(F)cccc1F", "Potency": "inconclusive: 50.1 µM [inhibitor, partial curve]"},
      {"molecule": "Cc1cc2cc3c(cc2nc1SCC(=O)N1CCN(C(=O)c2ccco2)CC1)OCO3", "Potency": "active: 50.1 µM"},
      {"molecule": "CCCCNC(=O)CN1CCN(Cc2ccc3cc(OC)ccc3c2)CC1", "Potency": "active: 44.7 µM"},
      {"molecule": "Cc1ccc(CNCc2c(C(=O)O)n(Cc3ccc(C)cc3)c3cc(C)ccc23)cc1", "Potency": "inconclusive: 28.2 µM [inhibitor, partial curve, poor fit]"},
      {"molecule": "COc1ccc(-c2nc3cnc(Nc4cccc(OC)c4)nc3n(Cc3cccs3)c2=O)cc1", "activity, negative = inhibition": "inactive: -3.85% [at 0.501 µM]"},
      {"molecule": "Cc1ccc(-c2nc3cccnc3o2)cc1NC(=O)COc1ccc(C(C)(C)C)cc1", "Potency": "inconclusive: 89.1 µM [inhibitor, single point]"},
      {"molecule": "COc1cc2c(cc1OC)C(c1ccccc1O)NCC2", "note": "(stereo not given)", "Potency": "inconclusive: 35.5 µM [inhibitor, partial curve, poor fit]"},
      {"molecule": "CSCCC(NS(=O)(=O)c1ccc2c(c1)oc(=O)n2C)C(=O)N1CCN(c2cccc(Cl)c2)CC1", "note": "(stereo not given)", "activity, negative = inhibition": "inactive: -7.11%"},
      {"molecule": "COc1ccc(OCC(O)CN2CCN(c3ccc(OC)cc3)CC2)cc1", "note": "(stereo not given)", "Potency": "active: 31.6 µM"},
      {"molecule": "COC(=O)c1cc(=O)n(Cc2ccc3c(c2)OCO3)c(=Nc2ccc(F)cc2)s1", "Potency": "inconclusive: 31.6 µM [inhibitor, full curve, poor fit]"},
      {"molecule": "Cc1cccc(NCc2ccccc2)c1", "activity, negative = inhibition": "inactive: 6.22% [at 102 µM]"},
      {"molecule": "CN(C(=O)COC(=O)c1ccccc1NCCO)C1CCS(=O)(=O)C1", "note": "(stereo not given)", "Potency": "inconclusive: 56.2 µM [inhibitor, partial curve]"},
      {"molecule": "Cn1c(=O)[nH]c(=O)c2c1nc(N1CCN(Cc3ccccc3)CC1)n2CCSc1ncccn1", "activity, negative = inhibition": "inactive: -15.1% [at 102 µM]"},
      {"molecule": "COC(=O)CSc1nnc(-c2ccc(S(=O)(=O)NCc3ccccc3Cl)cc2)o1", "Potency": "inconclusive: 89.1 µM [inhibitor, single point]"},
      {"molecule": "COc1ccc(CCNC(=O)c2cnc3sc(N4CCCC4)nn3c2=O)cc1OC", "activity, negative = inhibition": "inactive: 6.64%"},
      {"molecule": "O=C(N/N=C/c1c(O)ccc2ccccc12)c1ccc[n+](CCO)c1", "Potency": "inconclusive: 44.7 µM [inhibitor, partial curve, poor fit]"},
      {"molecule": "COc1cc(/C=N/n2nnnc2N)ccc1O", "Potency": "inconclusive: 25.1 µM [inhibitor, single point]"},
      {"molecule": "CCCCN(C)CCN1C(=O)C2C(C(=O)Nc3ccc(Cl)cc3)C3C=CC2(O3)C1C(=O)NC1CCCCC1", "note": "(stereo not given)", "Potency": "inconclusive: 79.4 µM [inhibitor, partial curve, poor fit]"},
      {"molecule": "COc1ccc(OCCCC(=O)Nc2cccc([N+](=O)[O-])c2C)cc1", "Potency": "inconclusive: 79.4 µM [inhibitor, single point]"},
      {"molecule": "Clc1ccc(CNc2nnnn2-c2ccccc2)c(Cl)c1", "activity, negative = inhibition": "inactive: 22% [at 102 µM]"},
      {"molecule": "CCOc1ccc(N=Cc2c(O)c3ccccc3oc2=O)cc1", "activity, negative = inhibition": "inactive: 7.46%"},
      {"molecule": "C/C(=N\\Nc1nc(C(C)(C)C)cs1)c1ccc(O)cc1", "Potency": "active: 31.6 µM"},
      {"molecule": "CCOC(=O)c1cc(-c2ccc(F)cc2)n(CCC(=O)NCCc2ccc(C)cc2)c1C", "Potency": "inconclusive: 35.5 µM [inhibitor, partial curve, poor fit]"},
      {"molecule": "S=c1[nH]ncc2ccccc12", "Potency": "active: 44.7 µM"},
      {"molecule": "CC(=O)NCc1ccc(C(=O)CSc2nnc(-c3ccncc3)n2Cc2ccccc2)o1", "Potency": "inconclusive: 5.62 µM [inhibitor, full curve, poor fit]"},
      {"molecule": "O=c1c2ccccc2oc2nc(-c3ccco3)n(Cc3ccccc3)c(=O)c12", "Potency": "inconclusive: 56.2 µM [inhibitor, partial curve]"},
      {"molecule": "O=C(C1=C(O)C(=O)N(c2nccs2)C1c1ccccc1)c1cc2ccccc2o1", "note": "(stereo not given)", "Potency": "active: 3.55 µM"},
      {"molecule": "c1ccc(Nc2nc(-c3ccncc3)cs2)cc1", "Potency": "inconclusive: 28.2 µM [inhibitor, single point]"},
      {"molecule": "Cn1c(=O)c2c(nc(Br)n2CCCc2ccccc2)n(C)c1=O", "activity, negative = inhibition": "inactive: -33.3% [at 102 µM]"},
      {"molecule": "CSc1ccc(-c2nc(CSCC(=O)N3CCOCC3)c(C)o2)cc1", "Potency": "inconclusive: 50.1 µM [inhibitor, partial curve]"},
      {"molecule": "Cc1ccc(-n2c(Cc3cccn3C)nnc2SCC(=O)N2CCc3ccccc32)cc1", "Potency": "active: 44.7 µM"},
      {"molecule": "Cn1c(Cc2cccs2)n[nH]c1=S", "Potency": "inconclusive: 2.82 µM [inhibitor, partial curve, poor fit]"},
      {"molecule": "Cc1cc2nc3c(=O)[nH]c(=O)nc-3n(CC(O)C(O)C(O)CO)c2cc1C", "note": "(stereo not given)", "Potency": "active: 6.31 µM"},
      {"molecule": "O=C(CN1CCN(c2nc(-c3ccc(F)cc3)cs2)CC1)Nc1ccc2c(c1)OCO2", "Potency": "active: 44.7 µM"},
      {"molecule": "Cc1ccc(-c2csc(N(CCO)CCCn3c(C(F)(F)F)nc4cc(C(F)(F)F)ccc43)n2)cc1", "Potency": "active: 25.1 µM"},
      {"molecule": "Cc1ccc2cc3c(N)nn(C(=O)c4cccc(F)c4)c3nc2c1", "Potency": "inconclusive: 39.8 µM [inhibitor, single point]"},
      {"molecule": "Cc1ccc(N(CC(=O)N2CCCCCC2)S(=O)(=O)c2ccccc2)cc1", "activity, negative = inhibition": "inactive: -0.861%"},
      {"molecule": "CCn1nnnc1SCC(=O)N1c2ccccc2CCc2ccccc21", "Potency": "inconclusive: 10 µM [inhibitor, partial curve, poor fit]"},
      {"molecule": "CCOC(=S)N/C(=N\\S(=O)(=O)c1ccc(C)cc1)c1ccccc1", "Potency": "active: 7.94 µM"},
      {"molecule": "CCn1nnc2cc(C(=O)NCC(c3ccccc3OC)N(C)C)ccc21", "note": "(stereo not given)", "Potency": "inconclusive: 63.1 µM [inhibitor, single point]"},
      {"molecule": "O=C(CCc1ccccc1)NNC(=S)Nc1ccc(F)cc1", "Potency": "inconclusive: 39.8 µM [inhibitor, partial curve, poor fit]"},
      {"molecule": "CCOc1ccccc1NC(=S)NCc1ccco1", "Potency": "inconclusive: 89.1 µM [inhibitor, partial curve, poor fit]"},
      {"molecule": "Nc1nc(N)c2cc(Sc3ccc4ccccc4c3)ccc2n1", "Potency": "inconclusive: 14.1 µM [inhibitor, full curve]"},
      {"molecule": "COc1cc(CN2CCN(C(=O)c3cccc4ccccc34)CC2)cc(OC)c1O", "Potency": "active: 6.31 µM"},
      {"molecule": "COc1ccc(N2CCN(C(=O)CSc3ncn[nH]3)CC2)cc1", "Potency": "inconclusive: 44.7 µM [inhibitor, partial curve]"},
      {"molecule": "N#C/C(=C/c1cn(-c2ccccc2)nc1-c1cccc(OCc2ccc(F)cc2)c1)C(=O)NCCCn1ccnc1", "activity, negative = inhibition": "inactive: 1.11%"},
      {"molecule": "CCOC(=O)C(=O)Nc1ccc(OCc2ccccc2)cc1", "Potency": "inconclusive: 89.1 µM [inhibitor, partial curve, poor fit]"}
    ]}
  ]
}
